# Measured values from the supplement of paper PMC8728848.
# This is one part of the list.
# Columns and labels:
# Experiment in all cases: glycan array binding signal (z-score within array); higher = stronger binding
# Settings in all cases: glycan notation: IUPAC condensed, linker removed
# [1] = target: Neu5Ac(a2-6)Gal(b1-4)GlcNAc(b1-2)Man(a1-3)[Man(a1-6)]Man(b1-4)GlcNAc(b1-4)GlcNAc
# Outline: (§1)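 Glycan array data were curated from 3228 arrays in the Consortium for Functional Glycomics database and kept only where the protein sequence was available. Glycan names were converted to IUPAC-condensed notation, and columns mapping to the same glycan were averaged. The binding signal is a within-array Z-score, averaged across arrays of the same protein sequence at different concentrations or buffers and across linkers. Negative Z-scores can be read as non-binding.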
# [2] = target: Neu5Ac(a2-6)Gal(b1-4)GlcNAc(b1-2)Man(a1-3)[Neu5Ac(a2-3)Gal(b1-4)GlcNAc(b1-2)Man(a1-6)]Man(b1-4)GlcNAc(b1-4)GlcNAc
# Outline: as §1
# [3] = target: Neu5Ac(a2-6)Gal(b1-4)GlcNAc(b1-2)Man(a1-3)[Neu5Ac(a2-6)Gal(b1-4)GlcNAc(b1-2)Man(a1-6)]Man(b1-4)GlcNAc(b1-4)GlcNAc
# Outline: as §1
# [4] = target: Neu5Ac(a2-6)Gal(b1-4)GlcNAc(b1-2)Man(a1-3)[Neu5Ac(a2-6)Gal(b1-4)GlcNAc(b1-2)Man(a1-6)]Man(b1-4)GlcNAc(b1-4)[Fuc(a1-6)]GlcNAc
# Outline: as §1
# [5] = target: Neu5Ac(a2-6)Gal(b1-4)GlcNAc(b1-2)Man(a1-6)Man(b1-4)GlcNAc(b1-4)GlcNAc
# Outline: as §1
# [6] = target: Neu5Ac(a2-6)Gal(b1-4)GlcNAc(b1-2)Man(a1-6)[Gal(b1-4)GlcNAc(b1-2)Man(a1-3)]Man(b1-4)GlcNAc(b1-4)GlcNAc
# Outline: as §1
# [7] = target: Neu5Ac(a2-6)Gal(b1-4)GlcNAc(b1-2)Man(a1-6)[GlcNAc(b1-2)Man(a1-3)]Man(b1-4)GlcNAc(b1-4)GlcNAc
# Outline: as §1
# [8] = target: Neu5Ac(a2-6)Gal(b1-4)GlcNAc(b1-2)Man(a1-6)[Man(a1-3)]Man(b1-4)GlcNAc(b1-4)GlcNAc
# Outline: as §1
# [9] = target: Neu5Ac(a2-6)Gal(b1-4)GlcNAc(b1-2)[Neu5Ac(a2-6)Gal(b1-4)GlcNAc(b1-4)]Man(a1-3)[GlcNAc(b1-4)][Neu5Ac(a2-6)Gal(b1-4)GlcNAc(b1-2)[Neu5Ac(a2-6)Gal(b1-4)GlcNAc(b1-6)]Man(a1-6)]Man(b1-4)GlcNAc(b1-4)GlcNAc
# Outline: as §1
# [10] = target: Neu5Ac(a2-6)Gal(b1-4)GlcNAc(b1-2)[Neu5Ac(a2-6)Gal(b1-4)GlcNAc(b1-4)]Man(a1-3)[GlcNAc(b1-4)][Neu5Ac(a2-6)Gal(b1-4)GlcNAc(b1-4)Man(a1-6)]Man(b1-4)GlcNAc(b1-4)GlcNAc
# Outline: as §1
# [11] = target: Neu5Ac(a2-6)Gal(b1-4)GlcNAc(b1-2)[Neu5Ac(a2-6)Gal(b1-4)GlcNAc(b1-6)]Man(a1-6)[Neu5Ac(a2-6)Gal(b1-4)GlcNAc(b1-2)Man(a1-3)][GlcNAc(b1-4)]Man(b1-4)GlcNAc(b1-4)GlcNAc
# Outline: as §1
# [12] = target: Neu5Ac(a2-6)Gal(b1-4)GlcNAc(b1-3)Gal(b1-3)GlcNAc
# Outline: as §1
# [13] = target: Neu5Ac(a2-6)Gal(b1-4)GlcNAc(b1-3)Gal(b1-4)GlcNAc
# Outline: as §1
# [14] = target: Neu5Ac(a2-6)Gal(b1-4)GlcNAc(b1-3)Gal(b1-4)GlcNAc(b1-2)Man(a1-3)[Neu5Ac(a2-6)Gal(b1-4)GlcNAc(b1-3)Gal(b1-4)GlcNAc(b1-2)Man(a1-6)]GalNAc
# Outline: as §1
# [15] = target: Neu5Ac(a2-6)Gal(b1-4)GlcNAc(b1-3)Gal(b1-4)GlcNAc(b1-3)Gal(b1-4)GlcNAc
# Outline: as §1
# [16] = target: Neu5Ac(a2-6)Gal(b1-4)GlcNAc(b1-3)Gal(b1-4)GlcNAc(b1-3)Gal(b1-4)GlcNAc(b1-2)Man(a1-3)[Neu5Ac(a2-6)Gal(b1-4)GlcNAc(b1-3)Gal(b1-4)GlcNAc(b1-3)Gal(b1-4)GlcNAc(b1-2)Man(a1-6)]GalNAc
# Outline: as §1
# [17] = target: Neu5Ac(a2-6)Gal(b1-4)GlcNAc(b1-3)Gal(b1-4)GlcNAc(b1-3)GalNAc
# Outline: as §1
# [18] = target: Neu5Ac(a2-6)Gal(b1-4)GlcNAc(b1-3)Gal(b1-4)GlcNAc(b1-3)[Neu5Ac(a2-6)Gal(b1-4)GlcNAc(b1-3)Gal(b1-4)GlcNAc(b1-6)]GalNAc
# Outline: as §1
# [19] = target: Neu5Ac(a2-6)Gal(b1-4)GlcNAc(b1-3)Gal(b1-4)GlcNAc(b1-6)[Gal(b1-3)]GalNAc
# Outline: as §1
# [20] = target: Neu5Ac(a2-6)Gal(b1-4)GlcNAc(b1-3)Gal(b1-4)[Fuc(a1-3)]GlcNAc(b1-3)Gal(b1-4)[Fuc(a1-3)]GlcNAc
# Outline: as §1
# [21] = target: Neu5Ac(a2-6)Gal(b1-4)GlcNAc(b1-3)GalNAc
# Outline: as §1
# [22] = target: Neu5Ac(a2-6)Gal(b1-4)GlcNAc(b1-3)[Neu5Ac(a2-6)Gal(b1-4)GlcNAc(b1-6)]GalNAc
# Outline: as §1
# [23] = target: Neu5Ac(a2-6)Gal(b1-4)GlcNAc(b1-6)GalNAc
# Outline: as §1
# [24] = target: Neu5Ac(a2-6)Gal(b1-4)GlcNAc(b1-6)[Gal(b1-3)GlcNAc(b1-3)]Gal(b1-4)Glc
# Outline: as §1
# [25] = target: Neu5Ac(a2-6)Gal(b1-4)GlcNAc(b1-6)[Gal(b1-3)]GalNAc
# Outline: as §1
# [26] = target: Neu5Ac(a2-6)Gal(b1-4)GlcNAc6S
# Outline: as §1
# Neu5Ac(a2-6)GalNAc = target: Neu5Ac(a2-6)GalNAc
# Outline: as §1
# [27] = target: Neu5Ac(a2-6)GalNAc(b1-4)GlcNAc
# Outline: as §1
# [28] = target: Neu5Ac(a2-6)GalNAc(b1-4)GlcNAc6S
# Outline: as §1
# [29] = target: Neu5Ac(a2-6)GlcNAc(b1-4)GlcNAc
# Outline: as §1
# [30] = target: Neu5Ac(a2-6)GlcNAc(b1-4)GlcNAc(b1-4)GlcNAc
# Outline: as §1
binder,measurement,setting,value
"LgFlo1 (Saccharomyces pastorianus), B3IUA8 (protein) SGSTQACLPVGSRKNGMNVNFYKYSLQDSTTYSDPQYMAYKYSDTKKLGSVSGQTHLSIYYGPNTAFWNTASWSSDLFGFYTTPTNVTVEMTGYFLPPQTGSYTFKFATVDDSAILSVGGSIAFECCAQEQPPITSTDFTINGIKPWDAATPTDIKGSTYMYAGYYYPIKIVYSNAKALARLPVSVVLPDGTEVNDDFEGYVYSFDDDLSQSNCTIPDPSKHTTS",glycan array binding signal (z-score),[1],-0.306
same,glycan array binding signal (z-score),[2],-0.257
same,glycan array binding signal (z-score),[3],-0.299
same,glycan array binding signal (z-score),[4],-0.085
same,glycan array binding signal (z-score),[5],-0.119
same,glycan array binding signal (z-score),[6],-0.38
same,glycan array binding signal (z-score),[7],-0.335
same,glycan array binding signal (z-score),[8],-0.037
same,glycan array binding signal (z-score),[9],-0.066
same,glycan array binding signal (z-score),[10],0.469
same,glycan array binding signal (z-score),[11],-0.153
same,glycan array binding signal (z-score),[12],0.199
same,glycan array binding signal (z-score),[13],-0.514
same,glycan array binding signal (z-score),[14],-0.499
same,glycan array binding signal (z-score),[15],-0.317
same,glycan array binding signal (z-score),[16],-0.071
same,glycan array binding signal (z-score),[17],-0.418
same,glycan array binding signal (z-score),[18],-0.127
same,glycan array binding signal (z-score),[19],0.026
same,glycan array binding signal (z-score),[20],-0.167
same,glycan array binding signal (z-score),[21],-0.102
same,glycan array binding signal (z-score),[22],-0.237
same,glycan array binding signal (z-score),[23],-0.267
same,glycan array binding signal (z-score),[24],-0.291
same,glycan array binding signal (z-score),[25],-0.064
same,glycan array binding signal (z-score),[26],-0.226
same,glycan array binding signal (z-score),Neu5Ac(a2-6)GalNAc,-0.312
same,glycan array binding signal (z-score),[27],-0.367
same,glycan array binding signal (z-score),[28],-0.226
same,glycan array binding signal (z-score),[29],-0.465
same,glycan array binding signal (z-score),[30],0.655
